Data: PMC4336329 (PLoS ONE, 2015)
About 2,200 (0.71%) of roughly 310,000 compounds showed an effect of 50% or more. Effects have a minus sign here. This is one part of the list.

biological target: human ether-à-go-go-related gene (hERG) potassium channel (human, UniProt Q12809); assay: primary screen, population patch clamp on CHO cells stably expressing hERG
Sequence (Q12809 whole entry, looked up): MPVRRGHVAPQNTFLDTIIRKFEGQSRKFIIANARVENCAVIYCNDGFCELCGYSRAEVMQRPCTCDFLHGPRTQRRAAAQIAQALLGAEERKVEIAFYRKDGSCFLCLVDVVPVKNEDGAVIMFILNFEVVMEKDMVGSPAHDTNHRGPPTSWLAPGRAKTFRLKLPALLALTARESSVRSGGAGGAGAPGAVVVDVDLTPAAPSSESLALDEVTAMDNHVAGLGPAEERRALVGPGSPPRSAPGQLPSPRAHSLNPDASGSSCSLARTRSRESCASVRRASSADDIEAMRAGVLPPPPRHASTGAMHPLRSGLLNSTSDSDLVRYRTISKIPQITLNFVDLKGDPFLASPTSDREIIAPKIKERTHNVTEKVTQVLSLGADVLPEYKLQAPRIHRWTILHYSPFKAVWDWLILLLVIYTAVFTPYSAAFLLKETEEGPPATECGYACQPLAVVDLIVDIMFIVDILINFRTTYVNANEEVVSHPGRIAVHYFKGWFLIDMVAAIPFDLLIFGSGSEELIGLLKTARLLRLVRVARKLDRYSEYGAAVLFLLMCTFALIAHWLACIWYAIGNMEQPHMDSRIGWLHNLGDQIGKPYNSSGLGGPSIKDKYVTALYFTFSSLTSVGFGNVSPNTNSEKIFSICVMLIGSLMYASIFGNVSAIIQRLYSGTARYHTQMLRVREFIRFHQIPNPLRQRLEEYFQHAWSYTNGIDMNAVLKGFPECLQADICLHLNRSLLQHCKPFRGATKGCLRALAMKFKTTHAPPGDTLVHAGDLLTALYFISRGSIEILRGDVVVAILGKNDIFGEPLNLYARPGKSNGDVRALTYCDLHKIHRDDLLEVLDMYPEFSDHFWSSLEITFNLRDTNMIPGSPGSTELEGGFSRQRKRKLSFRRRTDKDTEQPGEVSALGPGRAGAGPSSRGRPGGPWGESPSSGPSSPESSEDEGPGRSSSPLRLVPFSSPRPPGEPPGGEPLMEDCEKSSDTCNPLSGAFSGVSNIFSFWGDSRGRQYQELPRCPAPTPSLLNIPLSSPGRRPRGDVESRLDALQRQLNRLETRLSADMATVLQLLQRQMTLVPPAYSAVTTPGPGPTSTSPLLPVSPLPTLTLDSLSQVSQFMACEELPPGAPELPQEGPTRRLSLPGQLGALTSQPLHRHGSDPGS

Structure (SMILES)	hERG current change (%, negative = inhibition) at 1uM [%]
COc1cc(OC)c(NC(=S)NCc2ccccc2)cc1Cl	4.01
CCOC(=O)Cn1c(=O)oc2cc(S(=O)(=O)N3CCN(C(=O)OCC)CC3)ccc21	-2.31
Cc1nc(SC(C)C)[nH]c(=O)c1Cc1ccccc1	-5.58
O=C(CN1CCCC1)Nc1cc(C(F)(F)F)ccc1Cl	9.23
CC(C)n1c(NCc2cc(Cl)ccc2O)nc2ccccc21	16.2
Cc1cccc(NC(=O)Cn2nc([N+](=O)[O-])c(Br)c2C)n1	11.4
CCN(CC)C(=O)Cn1cnc2sc(C(=O)N3CCN(c4ccc(OC)cc4)CC3)c(C)c2c1=O	19.5
O=C1OC(c2ccc(Br)cc2)=N/C1=C\N1CC2CC(C1)c1cccc(=O)n1C2 (stereo not drawn)	-4.83
CCn1c(O)c(C=Nc2ccc(S(N)(=O)=O)cc2)c(=O)n(CC)c1=S	0.499
CCOc1ccc(N2C(=O)CN=C2Nc2ccccc2Cl)cc1	5.98
O=C(Cc1cc(=O)[nH]c(=O)[nH]1)NCc1ccccc1	3.51
Cc1cc(C)n(CCC(=O)N/N=C/c2ccc(Cl)c([N+](=O)[O-])c2)n1	4.96
CCc1noc(C)c1C(=O)NNC(=O)COc1ccc(Br)cc1	16.3
CCc1nnc(NC(=O)c2ccc(-c3cc(C(F)(F)F)ccc3Cl)o2)s1	10.2
Cc1cc(=O)oc2cc3oc(=O)cc(C)c3cc12	14.1
O=c1[nH]c(-c2ccc(Cl)cc2)nc(=S)[nH]1	12.3
CC1(C)NC(=O)N(CC(=O)OCC(=O)Nc2sccc2C#N)C1=O	3.31
O=C(CSCc1c(Cl)cccc1Cl)NCC1CCCO1 (stereo not drawn)	14.7
COc1ccc(CNC(=O)CN(C(=O)CCC(=O)Nc2nccs2)c2ccc(C)cc2)cc1	15.9
COc1ccc(NC(=O)CC2SC(=N)N(c3ccccc3)C2=O)c(OC)c1 (stereo not drawn)	11
O=C(O)C1Nc2c(C(=O)N3CCOCC3)cccc2C2C=CCC12 (stereo not drawn)	8.6
CCN(C(=O)COC(=O)CSc1ccc([N+](=O)[O-])cc1)C1CCS(=O)(=O)C1 (stereo not drawn)	7.04
CCOc1ccc(-n2c([O-])cc(=O)[nH]c2=O)cc1.[NH4+]	13.9

Structure (SMILES)	hERG current change (%, negative = inhibition) at 1uM [%]
Cc1sc(N/N=C/c2cccnc2)nc1-c1ccccc1	11.9
CSc1ccccc1NC(=S)N/N=C/c1cccn1Cc1cccc(C)c1	6.42
O=C1C(Cl)=C(N2CCOCC2)C(=O)N1c1ccccc1Cl	-2.9
COCCNC(=O)NC(=O)COC(=O)c1cccn1C	8.04
Cl.OCCNc1nc(N2CCN(Cc3ccccc3)CC2)nc2ccccc12	-28.6
Cc1ccc(CNC(=O)CCNC(=O)N2CCn3c2nc2ccccc23)cc1	0.827
COc1ccc(C(=O)Nc2ccccn2)cc1S(=O)(=O)N1CCOCC1	11.8
CCc1noc(C)c1C(=O)OCC(=O)N(CC)c1c(N)n(Cc2ccccc2)c(=O)[nH]c1=O	13.3
O=C1CCC(C(=O)N2CCCC2)CN1Cc1cccc(C(F)(F)F)c1 (stereo not drawn)	14.3
CCOC(=O)C1=C2N(C)c3ccccc3N2CCC1=O	6.37
CCC(NC(C)C)C(O)c1ccc(O)c2[nH]c(=O)ccc12.Cl (stereo not drawn)	8.22
O=C1COc2ccc(C(=O)COC(=O)c3cccnc3Cl)cc2N1	13.9
COc1ccccc1NC(=S)Nc1ccccn1	10.9
CC1(C)CC2CC(C)(CN2C(=O)c2ccc([N+](=O)[O-])cc2)C1 (stereo not drawn)	-5.6
COc1ccc(C(=O)c2ccc(N(C)C)cc2)c2ccccc12	15
COc1ccccc1-c1c(NC(=O)c2ccco2)n(C)c2ccccc2c1=O	15.3
c1ccc(-c2nnnn2-c2ccccc2)cc1	12.4
O=C(O)Cn1c(O)c(C=Nc2ccccc2)sc1=S [4242532]	13.9
COc1cc(OC)cc(C(=O)NCCNC(=O)c2ccco2)c1	8.2
Cc1sc2nc(C3CC3)nc(NCCNS(C)(=O)=O)c2c1C	11.6
CSCC[C@H](NC(=O)Cc1ccc(Cl)cc1)C(=O)N1CCC2(CC1)NCCc1[nH]cnc12	6.03
Cc1cc(NC(=O)CSc2nnc(CNC(=O)c3cccc(C(F)(F)F)c3)o2)no1	8.69
